Source: patent US12043670B2, “Anti-BCMA antibody-drug conjugates and methods of use” (Eisai R&D Management Co., Ltd., priority 2020, dated 2024)

B1: AB200-R1a-Fab_Vk25 (antibody)
heavy: QVQLVQSGAEVKKPGSSVKVSCKASGGTFSNYWMHWVRQAPGQGLEWMGATYRGHSDTYYNQKFKGRVTITADKSTSTAYMELSSLRSEDTAVYYCARGAIYHGYDVLDNWGQGTLVTVSSASTKGPSVFPLAPSSKSTSGGTAALGCLVKDYFPEPVTVSWNSGALTSGVHTFPAVLQSSGLYSLSSVVTVPSSSLGTQTYICNVNHKPSNTKVDKKVEPKSC
light: DIQMTQSPSSLSASVGDRVTITCSASQDISNYLNWYQQKPGKAPKLLIYAASNLHSGVPSRFSGSGSGTDFTLTISSLQPEDFATYYCQQYRKIPWTFGQGTKLEIKRTVAAPSVFIFPPSDEQLKSGTASVVCLLNNFYPREAKVQWKVDNALQSGNSQESVTEQDSKDSTYSLSSTLTLSKADYEKHKVYACEVTHQGLSSPVTKSFNRGEC
B2: AB200-R1a-Fab_Vk26 (antibody)
heavy: QVQLVQSGAEVKKPGSSVKVSCKASGGTFSNYWMHWVRQAPGQGLEWMGATYRGHSDTYYNQKFKGRVTITADKSTSTAYMELSSLRSEDTAVYYCARGAIYHGYDVLDNWGQGTLVTVSSASTKGPSVFPLAPSSKSTSGGTAALGCLVKDYFPEPVTVSWNSGALTSGVHTFPAVLQSSGLYSLSSVVTVPSSSLGTQTYICNVNHKPSNTKVDKKVEPKSC
light: DIQMTQSPSSLSASVGDRVTITCSASQDISNYLNWYQQKPGKAPKLLIYYSSSLHIGVPSRFSGSGSGTDFTLTISSLQPEDFATYYCQQYRKLPWTFGQGTKLEIKRTVAAPSVFIFPPSDEQLKSGTASVVCLLNNFYPREAKVQWKVDNALQSGNSQESVTEQDSKDSTYSLSSTLTLSKADYEKHKVYACEVTHQGLSSPVTKSFNRGEC
B3: AB200-R1a-Fab_Vk27 (antibody)
heavy: QVQLVQSGAEVKKPGSSVKVSCKASGGTFSNYWMHWVRQAPGQGLEWMGATYRGHSDTYYNQKFKGRVTITADKSTSTAYMELSSLRSEDTAVYYCARGAIYHGYDVLDNWGQGTLVTVSSASTKGPSVFPLAPSSKSTSGGTAALGCLVKDYFPEPVTVSWNSGALTSGVHTFPAVLQSSGLYSLSSVVTVPSSSLGTQTYICNVNHKPSNTKVDKKVEPKSC
light: DIQMTQSPSSLSASVGDRVTITCSASQDITNYLNWYQQKPGKAPKLLIYFTSNLHSGVPSRFSGSGSGTDFTLTISSLQPEDFATYYCQQYYKLPWTFGQGTKLEIKRTVAAPSVFIFPPSDEQLKSGTASVVCLLNNFYPREAKVQWKVDNALQSGNSQESVTEQDSKDSTYSLSSTLTLSKADYEKHKVYACEVTHQGLSSPVTKSFNRGEC
B4: AB200-R1a-Fab_Vk28 (antibody)
heavy: QVQLVQSGAEVKKPGSSVKVSCKASGGTFSNYWMHWVRQAPGQGLEWMGATYRGHSDTYYNQKFKGRVTITADKSTSTAYMELSSLRSEDTAVYYCARGAIYHGYDVLDNWGQGTLVTVSSASTKGPSVFPLAPSSKSTSGGTAALGCLVKDYFPEPVTVSWNSGALTSGVHTFPAVLQSSGLYSLSSVVTVPSSSLGTQTYICNVNHKPSNTKVDKKVEPKSC
light: DIQMTQSPSSLSASVGDRVTITCSASQDISNFLNWYQQKPGKAPKLLIYYTSNMHSGVPSRFSGSGSGTDFTLTISSLQPEDFATYYCQQYRSLPWTFGQGTKLEIKRTVAAPSVFIFPPSDEQLKSGTASVVCLLNNFYPREAKVQWKVDNALQSGNSQESVTEQDSKDSTYSLSSTLTLSKADYEKHKVYACEVTHQGLSSPVTKSFNRGEC
B5: AB200-R1a-Fab_Vk29 (antibody)
heavy: QVQLVQSGAEVKKPGSSVKVSCKASGGTFSNYWMHWVRQAPGQGLEWMGATYRGHSDTYYNQKFKGRVTITADKSTSTAYMELSSLRSEDTAVYYCARGAIYHGYDVLDNWGQGTLVTVSSASTKGPSVFPLAPSSKSTSGGTAALGCLVKDYFPEPVTVSWNSGALTSGVHTFPAVLQSSGLYSLSSVVTVPSSSLGTQTYICNVNHKPSNTKVDKKVEPKSC
light: DIQMTQSPSSLSASVGDRVTITCSASHDVSNYLNWYQQKPGKAPKLLIYYTSNLHSGVPSRFSGSGSGTDFTLTISSLQPEDFATYYCQQYRRLPWTFGQGTKLEIKRTVAAPSVFIFPPSDEQLKSGTASVVCLLNNFYPREAKVQWKVDNALQSGNSQESVTEQDSKDSTYSLSSTLTLSKADYEKHKVYACEVTHQGLSSPVTKSFNRGEC
B6: AB200-R1a-Fab_Vk30 (antibody)
heavy: QVQLVQSGAEVKKPGSSVKVSCKASGGTFSNYWMHWVRQAPGQGLEWMGATYRGHSDTYYNQKFKGRVTITADKSTSTAYMELSSLRSEDTAVYYCARGAIYHGYDVLDNWGQGTLVTVSSASTKGPSVFPLAPSSKSTSGGTAALGCLVKDYFPEPVTVSWNSGALTSGVHTFPAVLQSSGLYSLSSVVTVPSSSLGTQTYICNVNHKPSNTKVDKKVEPKSC
light: DIQMTQSPSSLSASVGDRVTITCTASQSISNYINWYQQKPGKAPKLLIYYTSNLHSGVPSRFSGSGSGTDFTLTISSLQPEDFATYYCQQYRKLPWTFGQGTKLEIKRTVAAPSVFIFPPSDEQLKSGTASVVCLLNNFYPREAKVQWKVDNALQSGNSQESVTEQDSKDSTYSLSSTLTLSKADYEKHKVYACEVTHQGLSSPVTKSFNRGEC
B7: AB200-R1a-Fab_Vk31 (antibody)
heavy: QVQLVQSGAEVKKPGSSVKVSCKASGGTFSNYWMHWVRQAPGQGLEWMGATYRGHSDTYYNQKFKGRVTITADKSTSTAYMELSSLRSEDTAVYYCARGAIYHGYDVLDNWGQGTLVTVSSASTKGPSVFPLAPSSKSTSGGTAALGCLVKDYFPEPVTVSWNSGALTSGVHTFPAVLQSSGLYSLSSVVTVPSSSLGTQTYICNVNHKPSNTKVDKKVEPKSC
light: DIQMTQSPSSLSASVGDRVTITCSASQDISNYLNWYQQKPGKAPKLLIYYTSNIHIGVPSRFSGSGSGTDFTLTISSLQPEDFATYYCQQYRKLPWSFGQGTKLEIKRTVAAPSVFIFPPSDEQLKSGTASVVCLLNNFYPREAKVQWKVDNALQSGNSQESVTEQDSKDSTYSLSSTLTLSKADYEKHKVYACEVTHQGLSSPVTKSFNRGEC
B8: AB200-R1a-Fab_Vk32 (antibody)
heavy: QVQLVQSGAEVKKPGSSVKVSCKASGGTFSNYWMHWVRQAPGQGLEWMGATYRGHSDTYYNQKFKGRVTITADKSTSTAYMELSSLRSEDTAVYYCARGAIYHGYDVLDNWGQGTLVTVSSASTKGPSVFPLAPSSKSTSGGTAALGCLVKDYFPEPVTVSWNSGALTSGVHTFPAVLQSSGLYSLSSVVTVPSSSLGTQTYICNVNHKPSNTKVDKKVEPKSC
light: DIQMTQSPSSLSASVGDRVTITCSASQDLSNYLNWYQQKPGKAPKLLIYYTSSLHSGVPSRFSGSGSGTDFTLTISSLQPEDFATYYCQQYRKTPWTFGQGTKLEIKRTVAAPSVFIFPPSDEQLKSGTASVVCLLNNFYPREAKVQWKVDNALQSGNSQESVTEQDSKDSTYSLSSTLTLSKADYEKHKVYACEVTHQGLSSPVTKSFNRGEC
B9: AB200-R1a-Fab_Vk33 (antibody)
heavy: QVQLVQSGAEVKKPGSSVKVSCKASGGTFSNYWMHWVRQAPGQGLEWMGATYRGHSDTYYNQKFKGRVTITADKSTSTAYMELSSLRSEDTAVYYCARGAIYHGYDVLDNWGQGTLVTVSSASTKGPSVFPLAPSSKSTSGGTAALGCLVKDYFPEPVTVSWNSGALTSGVHTFPAVLQSSGLYSLSSVVTVPSSSLGTQTYICNVNHKPSNTKVDKKVEPKSC
light: DIQMTQSPSSLSASVGDRVTITCSASQDISSYLNWYQQKPGKAPKLLIYFTSNLHSGVPSRFSGSGSGTDFTLTISSLQPEDFATYYCQQSRKLPWTFGQGTKLEIKRTVAAPSVFIFPPSDEQLKSGTASVVCLLNNFYPREAKVQWKVDNALQSGNSQESVTEQDSKDSTYSLSSTLTLSKADYEKHKVYACEVTHQGLSSPVTKSFNRGEC
B10: AB200-R1a-Fab_Vk1 (antibody)
heavy: QVQLVQSGAEVKKPGSSVKVSCKASGGTFSNYWMHWVRQAPGQGLEWMGATYRGHSDTYYNQKFKGRVTITADKSTSTAYMELSSLRSEDTAVYYCARGAIYHGYDVLDNWGQGTLVTVSSASTKGPSVFPLAPSSKSTSGGTAALGCLVKDYFPEPVTVSWNSGALTSGVHTFPAVLQSSGLYSLSSVVTVPSSSLGTQTYICNVNHKPSNTKVDKKVEPKSC
light: DIQMTQSPSSLSASVGDRVTITCRASQDISSYLNWYQQKPGKAPKLLIYYTSNIHSGVPSRFSGSGSGTDFTLTISSLQPEDFATYYCQQYRKLPWTFGQGTKLEIKRTVAAPSVFIFPPSDEQLKSGTASVVCLLNNFYPREAKVQWKVDNALQSGNSQESVTEQDSKDSTYSLSSTLTLSKADYEKHKVYACEVTHQGLSSPVTKSFNRGEC
B11: AB200-R1a-Fab_Vk34 (antibody)
heavy: QVQLVQSGAEVKKPGSSVKVSCKASGGTFSNYWMHWVRQAPGQGLEWMGATYRGHSDTYYNQKFKGRVTITADKSTSTAYMELSSLRSEDTAVYYCARGAIYHGYDVLDNWGQGTLVTVSSASTKGPSVFPLAPSSKSTSGGTAALGCLVKDYFPEPVTVSWNSGALTSGVHTFPAVLQSSGLYSLSSVVTVPSSSLGTQTYICNVNHKPSNTKVDKKVEPKSC
light: DIQMTQSPSSLSASVGDRVTITCSASHDISNYLNWYQQKPGKAPKLLIYYTSNLHSGVPSRFSGSGSGTDFTLTISSLQPEDFATYYCHEYRKLPWTFGQGTKLEIKRTVAAPSVFIFPPSDEQLKSGTASVVCLLNNFYPREAKVQWKVDNALQSGNSQESVTEQDSKDSTYSLSSTLTLSKADYEKHKVYACEVTHQGLSSPVTKSFNRGEC
B12: AB200-R1a-Fab_Vk35 (antibody)
heavy: QVQLVQSGAEVKKPGSSVKVSCKASGGTFSNYWMHWVRQAPGQGLEWMGATYRGHSDTYYNQKFKGRVTITADKSTSTAYMELSSLRSEDTAVYYCARGAIYHGYDVLDNWGQGTLVTVSSASTKGPSVFPLAPSSKSTSGGTAALGCLVKDYFPEPVTVSWNSGALTSGVHTFPAVLQSSGLYSLSSVVTVPSSSLGTQTYICNVNHKPSNTKVDKKVEPKSC
light: DIQMTQSPSSLSASVGDRVTITCSASQDLSNYLNWYQQKPGKAPKLLIYYTSNLHSGVPSRFSGSGSGTDFTLTISSLQPEDFATYYCQQYKKIPWTFGQGTKLEIKRTVAAPSVFIFPPSDEQLKSGTASVVCLLNNFYPREAKVQWKVDNALQSGNSQESVTEQDSKDSTYSLSSTLTLSKADYEKHKVYACEVTHQGLSSPVTKSFNRGEC

Assay: ThermoFluor thermostability (Tm)
Format: physicochemical
Conditions: Light chain screening Round 1; Fab, paired with heavy chain AB200_D99H
Molecule B1 has a Tm of 85.93 °C.
B2 showed a Tm of 82.42 °C.
Work on B3 yielded a Tm of 82.86 °C.
Molecule B4 has a Tm of 81.80 °C.
Work on B5 yielded a Tm of 82.79 °C.
Work on B6 yielded a Tm of 82.50 °C.
For B7, the Tm was 81.68 °C.
B8 gave a Tm of 79.68 °C.
With B9 the Tm was 85.36 °C.
For B10, the Tm was 82.67 °C.
In the case of B11, the Tm is reported as 76.90 °C.
B12 showed a Tm of 82.69 °C.
